These results are taken from the GPR68 mutational scans of Howard et al. (2025).

B1: GPR68, Q15743 (parent)
chain: MGNITADNSSMSCTIDHTIHQTLAPVVYVTVLVVGFPANCLSLYFGYLQIKARNELGVYLCNLTVADLFYICSLPFWLQYVLQHDNWSHGDLSCQVCGILLYENIYISVGFLCCISVDRYLAVAHPFRFHQFRTLKAAVGVSVVIWAKELLTSIYFLMHEEVIEDENQHRVCFEHYPIQAWQRAINYYRFLVGFLFPICLLLASYQGILRAVRRSHGTQKSRKDQIQRLVLSTVVIFLACFLPYHVLLLVRSVWEASCDFAKGVFNAYHFSLLLTSFNCVADPVLYCFVSETTHRDLARLRGACLAFLTCSRTGRAREAYPLGAPEASGKSGAQGEEPELLTKLHPAFQTPNSPGSGGFPTGRLA

Scores whose standard error is large were omitted. Two further conditions of the source, in which the scores hardly spread, are not listed. Read del as a deletion of the residues named and ins as an insertion between two positions. For some assays here: The concentration of ogerin is not given here.

Variants of B1 are the subject of data set [1]. The data set is described as follows: cAMP reporter score (Enrich2 score, wild type = 0); higher = more signal; HEK293T, FACS bins.
In data set [2] the parent is B1. The data set can be described thus: surface expression score (Enrich2 score, wild type = 0); higher = more signal; HEK293T, FACS bins.

With V235S, the cAMP reporter score amounted to 0.867 in data set [1] (pH 5.5); 2.16 in data set [1] (pH 6); 0.504 in data set [1] (pH 6, modulator: ogerin). The surface expression score in data set [2] is -0.404.
For the variant V235D, the cAMP reporter score in data set [1] (pH 5.5) was -0.783; in data set [1] (pH 6) it was -0.648; in data set [1] (pH 6, modulator: ogerin), -1.29; in data set [1] (pH 6.5, modulator: ogerin), -0.635. For the same variant, the surface expression score in data set [2] was -0.745.
V235K: the cAMP reporter score in data set [1] (pH 5.5) was -0.978; in data set [1] (pH 6) it was -1.18; in data set [1] (pH 6.5, modulator: ogerin), -0.03. In addition, in data set [2], the surface expression score was -2.85.
As for V235G, the cAMP reporter score came out at 0.908 in data set [1] (pH 5.5); 1.74 in data set [1] (pH 6); 2.02 in data set [1] (pH 6, modulator: ogerin); 3.62 in data set [1] (pH 6.5, modulator: ogerin).
In the case of V235E, the cAMP reporter score was -0.635 in data set [1] (pH 5.5) and -0.917 in data set [1] (pH 6.5, modulator: ogerin). Besides, the surface expression score in data set [2] is -1.65.
For V235A, the cAMP reporter score in data set [1] (pH 5.5) turned out to be 1.8; in data set [1] (pH 6) it was 3.99; in data set [1] (pH 6, modulator: ogerin), 2.39; in data set [1] (pH 6.5, modulator: ogerin), 2.7. Also, in data set [2], the surface expression score amounted to 0.223.
On the same counts, the results for V235P are -1.38, -1.38, -1.49, -0.761 and -3.49.
Regarding V235R, the cAMP reporter score in data set [1] (pH 5.5) is -1.35; in data set [1] (pH 6), -0.87; in data set [1] (pH 6, modulator: ogerin) it was -2.13; in data set [1] (pH 6.5, modulator: ogerin) it was -1.78. Also, in data set [2], the surface expression score was -2.75.
On the same counts, the results for V235I are 0.369, 0.707, 0.484, 0.544 and 0.409.
On the same counts, the results for V235C are -0.485, -0.688, -0.231, 1.33 and 0.
Turning to V235H, the cAMP reporter score in data set [1] (pH 5.5) was -1.19. Besides, the surface expression score in data set [2] was -0.302.
As to V235T, the cAMP reporter score in data set [1] (pH 5.5) came to 1.05; in data set [1] (pH 6), 1.56; in data set [1] (pH 6, modulator: ogerin) it was 2.53.
V230_L231del: the cAMP reporter score in data set [1] (pH 5.5) was -1.9; in data set [1] (pH 6), -0.543; in data set [1] (pH 6, modulator: ogerin) it was -1.84; in data set [1] (pH 6.5, modulator: ogerin) it was -0.663. For the same variant, in data set [2], the surface expression score is -1.67.
For V253_W254del, the cAMP reporter score in data set [1] (pH 5.5) was -1.47; in data set [1] (pH 6, modulator: ogerin), -0.938; in data set [1] (pH 6.5, modulator: ogerin), -0.537. Further, in data set [2], the surface expression score is -2.24.
In the case of V250_R251insGSG, the cAMP reporter score in data set [1] (pH 5.5) is -1.62; in data set [1] (pH 6), -1.1; in data set [1] (pH 6, modulator: ogerin), -1.46; in data set [1] (pH 6.5, modulator: ogerin) it was -1.45. Besides, the surface expression score in data set [2] was -1.85.
For the variant L242_P243insGSG, the cAMP reporter score in data set [1] (pH 5.5) is -0.24; in data set [1] (pH 6.5, modulator: ogerin) it was -0.849.
With I236_L238del, the cAMP reporter score was -1.63 in data set [1] (pH 5.5); -0.301 in data set [1] (pH 6); -2.11 in data set [1] (pH 6, modulator: ogerin); -1.03 in data set [1] (pH 6.5, modulator: ogerin). Besides, in data set [2], the surface expression score is -2.32.
On the same counts, the results for F241_L242insGSG are -0.804, -1.34, -1.82, -0.965 and -2.27.
In the case of V235del, the cAMP reporter score in data set [1] (pH 5.5) was -1.27; in data set [1] (pH 6.5, modulator: ogerin), -1.09. For the same variant, the surface expression score in data set [2] was -2.92.
In the case of L249_V250insGS, the cAMP reporter score was -1.03 in data set [1] (pH 5.5); -0.897 in data set [1] (pH 6); -1.53 in data set [1] (pH 6, modulator: ogerin); -1.27 in data set [1] (pH 6.5, modulator: ogerin). Further, the surface expression score in data set [2] is -1.96.
In the same order, the values of L231_S232insGSG are -1.84, -1.38, -1.99, -1.33 and -2.17.
Take C240del: the cAMP reporter score in data set [1] (pH 5.5) is -2.04; in data set [1] (pH 6.5, modulator: ogerin) it was -1.75. Further, the surface expression score in data set [2] is -0.355.
As to P243_Y244insG, the cAMP reporter score in data set [1] (pH 5.5) was -1.39; in data set [1] (pH 6), -1.19; in data set [1] (pH 6, modulator: ogerin), -1.92; in data set [1] (pH 6.5, modulator: ogerin), -1.11. In addition, in data set [2], the surface expression score is -2.74.
As to L229_V230insG, the cAMP reporter score was -1.47 in data set [1] (pH 5.5); -0.827 in data set [1] (pH 6); -0.632 in data set [1] (pH 6.5, modulator: ogerin). In data set [2], the surface expression score was -2.86.
In the same order, the values of L249_R251del are -2.27, -1.2, -1.45 and -2.74.
Consider L229del, for which the cAMP reporter score in data set [1] (pH 5.5) is -1.54; in data set [1] (pH 6) it was -1.26; in data set [1] (pH 6, modulator: ogerin) it was -1.54; in data set [1] (pH 6.5, modulator: ogerin), -1.64. In data set [2], the surface expression score is -2.24.
Consider H245M, for which the cAMP reporter score was -0.598 in data set [1] (pH 5.5); -0.588 in data set [1] (pH 6); -1.13 in data set [1] (pH 6, modulator: ogerin); -0.921 in data set [1] (pH 6.5, modulator: ogerin). For the same variant, in data set [2], the surface expression score was -1.84.
As to H245V, the cAMP reporter score in data set [1] (pH 5.5) is -1.52; in data set [1] (pH 6), -1.69; in data set [1] (pH 6, modulator: ogerin), -1.83; in data set [1] (pH 6.5, modulator: ogerin), -1.22. In data set [2], the surface expression score is -2.27.
Turning to H245N, the cAMP reporter score was -0.398 in data set [1] (pH 5.5); -2.53 in data set [1] (pH 6, modulator: ogerin); -2.03 in data set [1] (pH 6.5, modulator: ogerin). In data set [2], the surface expression score is -0.386.
As for H245T, the cAMP reporter score is -0.552 in data set [1] (pH 5.5); 0.328 in data set [1] (pH 6); -1.02 in data set [1] (pH 6, modulator: ogerin); -0.531 in data set [1] (pH 6.5, modulator: ogerin). The surface expression score in data set [2] was -2.48.
Regarding H245K, the cAMP reporter score in data set [1] (pH 5.5) was -1.09; in data set [1] (pH 6) it was -0.926. In addition, the surface expression score in data set [2] was -0.947.
Regarding H245I, the cAMP reporter score in data set [1] (pH 5.5) was -1.8; in data set [1] (pH 6) it was -0.451; in data set [1] (pH 6, modulator: ogerin), -1.59; in data set [1] (pH 6.5, modulator: ogerin), -1.22. Besides, the surface expression score in data set [2] was -2.06.
On the same counts, the results for H245W are -1.53, -0.759, -1.2, -1.17 and -2.1.
Take H245D: the cAMP reporter score was -1.97 in data set [1] (pH 5.5); -1.09 in data set [1] (pH 6); -1.66 in data set [1] (pH 6.5, modulator: ogerin). Also, the surface expression score in data set [2] was -2.71.
